Results: US3945994A, “Novel acid compounds” (Gist-Brocades N.V., priority 1973, dated 1976)
Values after ≈ are worked out from the molar mass of the structure shown.

system: Proteus mirabilis L93; assay: micro serial dilution test, MIC; format: cell-based; settings: micro serial dilution (between brackets), 30°C or 37°C, about 18 hours

MIC [µg/mL] | SMILES
0.3 (≈ 0.793 µM) | CC1(C)S[C@@H]2[C@H](NC(=O)C(C(=O)O)c3ccccc3)C(=O)N2[C@H]1C(=O)O (stereo partly drawn) [carbenicillin, reference compound]

system: Proteus mirabilis L 93; assay: microbe, parasite or virus in culture; settings: L93, 24 h

SMILES | MIC [µg/mL]
CC1(C)S[C@@H]2[C@H](NC(=O)[C@H](NC(=O)NS(=O)(=O)Nc3ccccc3)c3ccccc3)C(=O)N2[C@H]1C(=O)O [VII, D-6-[α-{3-(phenylaminosulfonyl)-ureido}-benzylcarbonamido]-penicillanic acid] | 1.5 (≈ 2.74 µM)
Cc1nnc(SCC2=C(C(=O)O)N3C(=O)[C@@H](NC(=O)Cn4cnnn4)[C@H]3SC2)s1 [cephazolin, reference compound] | 1.5 (≈ 3.3 µM)
CCOC(=O)NS(=O)(=O)N[C@@H](C(=O)N[C@@H]1C(=O)N2[C@@H]1SC(C)(C)[C@@H]2C(=O)O)c1ccccc1 [XIX, D-6-[α-(ethoxycarbonylaminosulfonylamino)-benzylcarbonamido]-penicillanic acid] | 3 (≈ 5.99 µM)
CC(=O)OCC1=C(C(=O)O)N2C(=O)[C@@H](NC(=O)[C@H](N)c3ccccc3)[C@H]2SC1 [cephaloglycin, 7-(α-aminophenylacetamido) cephalosporanic acid, reference compound] | 3 (≈ 7.4 µM)
CCOS(=O)(=O)NC(=O)N[C@@H](C(=O)N[C@@H]1C(=O)N2[C@@H]1SC(C)(C)[C@@H]2C(=O)O)c1ccccc1 [VI, D-6-[α-{3-(ethoxysulfonyl)-ureido}-benzylcarbonamido]-penicillanic acid] | 1.5 (≈ 3 µM)
CC1(C)S[C@@H]2[C@H](NC(=O)[C@H](NS(N)(=O)=O)c3ccccc3)C(=O)N2[C@H]1C(=O)O [XVIII, D-6-[α-(aminosulfonylamino)-benzylcarbonamido]-penicillanic acid] | 1.5 (≈ 3.5 µM)
CC(=NS(=O)(=O)N[C@@H](C(=O)N[C@@H]1C(=O)N2[C@@H]1SC(C)(C)[C@@H]2C(=O)O)c1ccccc1)N(C)C [XXI, D-6-[α-{1-(dimethylamino)-ethylideneamino-sulfonamido}-benzylcarbonamido]-penicillanic acid] | 3 (≈ 6.03 µM)
CC1(C)S[C@@H]2C(NC(=O)C(N)c3ccccc3)C(=O)N2[C@H]1C(=O)O (stereo partly drawn) [ampicillin, 6-(α-aminophenylacetamido) penicillanic acid, reference compound] | 3 (≈ 8.59 µM)
CC1(C)S[C@@H]2[C@H](NC(=O)[C@H](NC(=O)NS(=O)(=O)N3CCOCC3)c3ccccc3)C(=O)N2[C@H]1C(=O)O [XIV, D-6-[α-{3-(morpholino-sulfonyl)-ureido}-benzylcarbonamido]-penicillanic acid] | < 0.75
CCOC(=O)CNS(=O)(=O)NC(=O)N[C@@H](C(=O)N[C@@H]1C(=O)N2[C@@H]1SC(C)(C)[C@@H]2C(=O)O)c1ccccc1 [X, D-6-[α-{3-(ethoxycarbonylmethylaminosulfonyl)-ureido}-benzylcarbonamido]-penicillanic acid] | < 0.75
CN1CCCC1=NS(=O)(=O)N[C@@H](C(=O)N[C@@H]1C(=O)N2[C@@H]1SC(C)(C)[C@@H]2C(=O)O)c1ccccc1 [XXIII, D-6-[α-{1-(methylpyrrolidin-2-ylidene)-amino-sulfonamido}-benzylcarbonamido] -penicillanic acid] | 3 (≈ 5.89 µM)

Next, values leading:

MIC [µg/mL] | SMILES
6 (≈ 12.7 µM) | CC1(C)S[C@@H]2[C@H](NC(=O)[C@H](NC(=O)NS(N)(=O)=O)c3ccccc3)C(=O)N2[C@H]1C(=O)O [XVI, D-6-[α-{3-(aminosulfonyl)-ureido}-benzylcarbonamido]-penicillanic acid]
0.75 (≈ 1.46 µM) | CC(C)NS(=O)(=O)NC(=O)N[C@@H](C(=O)N[C@@H]1C(=O)N2[C@@H]1SC(C)(C)[C@@H]2C(=O)O)c1ccccc1 [IX, D-6-[α-{3-(isopropylaminosulfonyl)-ureido}-benzylcarbonamido]-penicillanic acid]
< 0.75 | CC1(C)S[C@@H]2[C@H](NC(=O)[C@H](NC(=O)NS(=O)(=O)O)c3ccccc3)C(=O)N2[C@H]1C(=O)O [XVII, D-6-[α-{3-(sulfo)-ureido}-benzylcarbonamido]-penicillanic acid]
3 (≈ 5.47 µM) | CC1(C)S[C@@H]2[C@H](NC(=O)[C@H](NC(=O)NS(=O)(=O)Nc3cccnc3)c3ccccc3)C(=O)N2[C@H]1C(=O)O [XI, D-6-[α-{3-(pyrid-3-ylaminosulfonyl)-ureido}-benzylcarbonamido]-penicillanic acid]
1.5 (≈ 2.71 µM) | Cc1cc(NS(=O)(=O)NC(=O)N[C@@H](C(=O)N[C@@H]2C(=O)N3[C@@H]2SC(C)(C)[C@@H]3C(=O)O)c2ccccc2)no1 [XII, D-6-[α-{3-(5-methylisoxazol-3-yl-aminosulfonyl)-ureido}-benzylcarbonamido]-penicillanic acid]
0.75 (≈ 1.32 µM) | Cc1noc(NS(=O)(=O)NC(=O)N[C@@H](C(=O)N[C@@H]2C(=O)N3[C@@H]2SC(C)(C)[C@@H]3C(=O)O)c2ccccc2)c1C [XIII, D-6-[α-{3-(3,4-dimethylisoxazol-5-yl-aminosulfonyl)ureido}-benzylcarbonamido]-penicillanic acid]
